Experimental data published in article PMC5700166.
The entries are a selection whose mix differs from that of the whole data set. The list includes weakly bound sequences.

target: T1, GST-Aq-NF-kB (UniProt A9Y5G7); assay: protein-binding microarray (PBM); settings: PBM: ~300 nM protein, 6 mM HEPES pH 7.8, 80 mM KCl, 0.5 mM EDTA, 0.5 mM EGTA, 6% glycerol, 35 ng/ul poly-dIdC, 1% milk, 1 h, room temperature; Ap Aiptasia and Nv Nematostella (sea anemones) / Co Capsaspora / Aq Amphimedon (sponge) / Dm Drosophila / Hu human; RHD is the Rel homology domain; high values mean tight binding; most listed sequences are background and not binding sites; double strand, one strand shown
T1 sequence: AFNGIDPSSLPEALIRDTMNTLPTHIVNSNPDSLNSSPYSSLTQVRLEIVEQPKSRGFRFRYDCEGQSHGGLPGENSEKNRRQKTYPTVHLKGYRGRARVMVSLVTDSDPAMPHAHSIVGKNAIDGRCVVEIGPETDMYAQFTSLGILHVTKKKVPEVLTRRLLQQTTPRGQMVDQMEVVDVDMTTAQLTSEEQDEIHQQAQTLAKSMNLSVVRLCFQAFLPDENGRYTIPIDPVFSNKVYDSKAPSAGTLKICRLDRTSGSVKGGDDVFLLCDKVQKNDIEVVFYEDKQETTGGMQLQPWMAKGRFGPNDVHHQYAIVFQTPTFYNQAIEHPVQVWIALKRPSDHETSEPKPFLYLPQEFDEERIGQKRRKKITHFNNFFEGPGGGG

Row | Sequence | binding signal
1 | CCGATTAACATCATCCGCCCTCCTGATGTTAATCGGGTCTTGATTCGCTTGACGCTGCTG | -0.144 z-score
2 | CCGATTAACATCAATTCTAGTGGTGATGTTAATCGGGTCTTGATTCGCTTGACGCTGCTG | -0.402 z-score
3 | CCGATTAACATCAGAACGGTTAATGATGTTAATCGGGTCTTGATTCGCTTGACGCTGCTG | -0.143 z-score
4 | CCGATTAACATCAACTCAGTTACTGATGTTAATCGGGTCTTGATTCGCTTGACGCTGCTG | -0.281 z-score
5 | CCGATTAACATCACAGCGAATCCTGATGTTAATCGGGTCTTGATTCGCTTGACGCTGCTG | -0.437 z-score
6 | CCGATTAACATCAACAAATTTCCTGATGTTAATCGGGTCTTGATTCGCTTGACGCTGCTG | 0.782 z-score
7 | CCGATTAACATCAGACAAGTTGGTGATGTTAATCGGGTCTTGATTCGCTTGACGCTGCTG | -0.215 z-score
8 | CCGATTAACATCATCCCTCTGAATGATGTTAATCGGGTCTTGATTCGCTTGACGCTGCTG | -0.00603 z-score
9 | CCGATTAACATCAGGAAAGTTCCTGATGTTAATCGGGTCTTGATTCGCTTGACGCTGCTG | 1.9 z-score
10 | CCGATTAACATCAATTGCTGTAATGATGTTAATCGGGTCTTGATTCGCTTGACGCTGCTG | -0.738 z-score
11 | CCGATTAACATCAAATTTCCTAATGATGTTAATCGGGTCTTGATTCGCTTGACGCTGCTG | 0.208 z-score
12 | CCGATTAACATCACATGGCGCTGTGATGTTAATCGGGTCTTGATTCGCTTGACGCTGCTG | -0.668 z-score
13 | CCGATTAACATCAGGGTTCAGGCTGATGTTAATCGGGTCTTGATTCGCTTGACGCTGCTG | -0.362 z-score
14 | CCGATTAACATCAGGAATAAACATGATGTTAATCGGGTCTTGATTCGCTTGACGCTGCTG | -0.236 z-score
15 | CCGATTAACATCAGTTATCAGTATGATGTTAATCGGGTCTTGATTCGCTTGACGCTGCTG | -0.207 z-score
16 | CCGATTAACATCAACCTCAGCGCTGATGTTAATCGGGTCTTGATTCGCTTGACGCTGCTG | -0.417 z-score
17 | CCGATTAACATCAACGCTGTCCTTGATGTTAATCGGGTCTTGATTCGCTTGACGCTGCTG | -0.263 z-score
18 | CCGATTAACATCAATCGGTCTACTGATGTTAATCGGGTCTTGATTCGCTTGACGCTGCTG | -0.487 z-score
19 | CCGATTAACATCAGTCCGTATTATGATGTTAATCGGGTCTTGATTCGCTTGACGCTGCTG | -0.0172 z-score

Row | Sequence | binding signal
20 | CCGATTAACATCACCATGATCGATGATGTTAATCGGGTCTTGATTCGCTTGACGCTGCTG | -0.32 z-score
21 | CCGATTAACATCACGCCACACACTGATGTTAATCGGGTCTTGATTCGCTTGACGCTGCTG | -0.0614 z-score
22 | CCGATTAACATCACTCAAGGTTTTGATGTTAATCGGGTCTTGATTCGCTTGACGCTGCTG | -0.409 z-score
23 | CCGATTAACATCAGAATCTTTGGTGATGTTAATCGGGTCTTGATTCGCTTGACGCTGCTG | -0.203 z-score
24 | CCGATTAACATCAGCCGCCTACCTGATGTTAATCGGGTCTTGATTCGCTTGACGCTGCTG | -0.39 z-score
25 | CCGATTAACATCACAATAAAATGTGATGTTAATCGGGTCTTGATTCGCTTGACGCTGCTG | -0.564 z-score
26 | CCGATTAACATCATCTGCCAGCATGATGTTAATCGGGTCTTGATTCGCTTGACGCTGCTG | -0.595 z-score
27 | CCGATTAACATCATCGGTTAGTGTGATGTTAATCGGGTCTTGATTCGCTTGACGCTGCTG | -0.489 z-score
28 | CCGATTAACATCACGTAACTTGATGATGTTAATCGGGTCTTGATTCGCTTGACGCTGCTG | -0.208 z-score
29 | CCGATTAACATCATACTCGCCGATGATGTTAATCGGGTCTTGATTCGCTTGACGCTGCTG | -0.372 z-score
30 | CCGATTAACATCAAGAGTTTTCCTGATGTTAATCGGGTCTTGATTCGCTTGACGCTGCTG | 0.301 z-score
31 | CCGATTAACATCAGTGCGCGTGTTGATGTTAATCGGGTCTTGATTCGCTTGACGCTGCTG | -0.322 z-score
32 | CCGATTAACATCATCTCCAGGTCTGATGTTAATCGGGTCTTGATTCGCTTGACGCTGCTG | -0.391 z-score
33 | CCGATTAACATCACTTCTAACATTGATGTTAATCGGGTCTTGATTCGCTTGACGCTGCTG | -0.439 z-score
34 | CCGATTAACATCAGATAGGTACTTGATGTTAATCGGGTCTTGATTCGCTTGACGCTGCTG | 0.294 z-score
35 | CCGATTAACATCACCAGGAAAGTTGATGTTAATCGGGTCTTGATTCGCTTGACGCTGCTG | 0.234 z-score
36 | CCGATTAACATCAAGGAATTGCCTGATGTTAATCGGGTCTTGATTCGCTTGACGCTGCTG | 0.917 z-score
37 | CCGATTAACATCATGTACGCTGCTGATGTTAATCGGGTCTTGATTCGCTTGACGCTGCTG | -0.261 z-score
